Measured values published in the antibiotic and cytotoxicity screens of Wong et al. (2023).
Some of the results follow.

Key:
HSkMC = human skeletal muscle cells; assay: cytotoxicity call (relative viability < 0.9); details: 10 µM
HepG2 = assay: cytotoxicity call (relative viability < 0.9); details: 10 µM
S. aureus RN4220 = assay: growth inhibition call (relative growth <= 0.2); details: 50 µM

Cc1ccc(S(=O)(=O)Nc2ccc3c(c2)C(=O)N([C@@H](C)CO)C[C@@H](C)[C@H](CN(C)S(=O)(=O)c2cccs2)O3)cc1
cytotoxicity call (HSkMC): inactive
cytotoxicity call (HepG2): inactive
growth inhibition call (S. aureus RN4220): inactive

CCS(=O)(=O)N1C[C@]2(CCN(CC2)S(=O)(=O)c2cn(cn2)C)c2c([nH]c3cc(ccc23)OC)[C@H]1CO
cytotoxicity call (HSkMC): inactive
cytotoxicity call (HepG2): inactive
growth inhibition call (S. aureus RN4220): inactive

COc1ccc(NC(=O)Nc2ccc3c(c2)C(=O)N([C@@H](C)CO)C[C@@H](C)[C@@H](CN(C)Cc2ccc(C(F)(F)F)cc2)OCCCC[C@H](C)O3)cc1
cytotoxicity call (HSkMC): inactive
cytotoxicity call (HepG2): active
growth inhibition call (S. aureus RN4220): inactive

C[C@@H]1CCCCO[C@@H](CN(C)C(=O)Nc2cccc3ccccc23)[C@@H](C)CN([C@@H](C)CO)C(=O)c2cc(NS(=O)(=O)c3ccc(Cl)cc3)ccc2O1
cytotoxicity call (HSkMC): inactive
cytotoxicity call (HepG2): inactive
growth inhibition call (S. aureus RN4220): inactive

C[C@@H](NC(=O)C[C@H]1CC[C@H](NC(=O)CN2CCOCC2)[C@@H](CO)O1)c1ccccc1
cytotoxicity call (HSkMC): inactive
cytotoxicity call (HepG2): inactive
growth inhibition call (S. aureus RN4220): inactive

C[C@@H]1CCCCO[C@@H](CN(C)C(=O)c2ccccc2)[C@@H](C)CN([C@H](C)CO)C(=O)c2cc(NS(=O)(=O)c3ccccc3)ccc2O1
cytotoxicity call (HSkMC): inactive
cytotoxicity call (HepG2): inactive
growth inhibition call (S. aureus RN4220): inactive

C[C@H](O)C#Cc1cnc2c(c1)C(=O)N([C@H](C)CO)C[C@@H](C)[C@@H](CN(C)Cc1cncnc1)O2
cytotoxicity call (HSkMC): inactive
cytotoxicity call (HepG2): inactive
growth inhibition call (S. aureus RN4220): inactive

C[C@@H]1CN([C@@H](C)CO)C(=O)c2cc(NC(=O)c3ccncc3)ccc2O[C@@H](C)CCCCO[C@@H]1CN(C)C(=O)Nc1cccc2ccccc12
cytotoxicity call (HSkMC): inactive
cytotoxicity call (HepG2): inactive
growth inhibition call (S. aureus RN4220): inactive
